Measured values as given in the supplement of paper PMC4166925.
± gives the standard deviation of the averaged measurements. The full ranking holds about 33,000 sequences; the median of “E-score (dimensionless, -0.5 to 0.5)” is about -0.049, and the highest 2% start at about 0.37. Some of the results follow.

These sequences were tested on T1, PmTbr T-box DNA-binding domain (GST fusion) (assay: PBM E-score of 8-mer (E-score (dimensionless, -0.5 to 0.5)); Tbr is Tbrain of the sea star Patiria miniata (Pm) or the sea urchin Strongylocentrotus purpuratus (Sp); higher = stronger binding preference; most listed sequences are background and not binding sites). Details: the construct has about 5 more residues each side.
T1 sequence: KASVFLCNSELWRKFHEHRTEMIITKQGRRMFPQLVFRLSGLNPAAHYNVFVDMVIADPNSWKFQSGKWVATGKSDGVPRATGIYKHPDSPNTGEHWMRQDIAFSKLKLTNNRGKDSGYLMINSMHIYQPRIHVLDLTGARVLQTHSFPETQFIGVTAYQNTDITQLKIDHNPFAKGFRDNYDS
Method: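 Universal protein-binding microarray (Agilent AMADID 016060, 60-bp probes with a 35-bp variable region) incubated with 200 nM GST-fused Patiria miniata Tbr T-box DNA-binding domain (residues 272-466) in PBS pH 7.5. Scored for every ungapped 8-mer (given with its reverse complement) by the Universal PBM Analysis Suite as E-score (modified Wilcoxon-Mann-Whitney enrichment, range -0.5 to 0.5; >0.45 counts as bound) and Z-score of median probe intensity. Two replicate arrays (datasets 1 and 2).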
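Note: 200 nM protein in PBS on universal arrays averaged over duplicate arrays.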

GATTCAGC and TCCTATAA are within error of each other in “PBM E-score of 8-mer” value: -0.0931 ± 0.032 for the first, -0.189 ± 0.068 for the second.

First: CAATAATG
Second: GAAGACAA
The “PBM E-score of 8-mer” value of the first is lower: -0.126 ± 0.074 for the first, 0.086 ± 0.051 for the second.

TGAAGAAA and GCCTAGAA are within error of each other in “PBM E-score of 8-mer” value: -0.0329 ± 0.025 for the first, -0.0839 ± 0.072 for the second.

Compared with CTATCCGA, CCACATCC is higher in “PBM E-score of 8-mer” value: -0.271 ± 0.073 for the first, -0.102 ± 0.032 for the second.

Going from CAGACTGG to CGTCATGA, the “PBM E-score of 8-mer” value rises from -0.346 ± 0.062 to -0.156 ± 0.011.

First: ATACCGAG
Second: CGTGAACA
The “PBM E-score of 8-mer” value of the first is lower: -0.177 ± 0.04 for the first, 0.321 ± 0.021 for the second.

Going from AATTAGGC to ATATGTGC, the “PBM E-score of 8-mer” value rises from -0.0602 ± 0.0089 to 0.2311 ± 0.0006.

CTCATTTC and ACTGGTAC are within error of each other in “PBM E-score of 8-mer” value: -0.224 ± 0.033 for the first, -0.13 ± 0.064 for the second.

ATTTGCCC and GGGTATTA are within error of each other in “PBM E-score of 8-mer” value: -0.1 ± 0.039 for the first, -0.139 ± 0.091 for the second.

Going from ACGAGGTC to ACCCGAAA, the “PBM E-score of 8-mer” value rises from -0.113 ± 0.027 to 0.153 ± 0.035.

GCGGGTAA and AGCATTAT are within error of each other in “PBM E-score of 8-mer” value: 0.118 ± 0.029 for the first, 0.0593 ± 0.03 for the second.

Compared with CATAGAGG, GGCCGTAC is lower in “PBM E-score of 8-mer” value: -0.0262 ± 0.0062 for the first, -0.128 ± 0.052 for the second.

First: CAGTCATC
Second: CCACCTGC
The “PBM E-score of 8-mer” value of the first is lower: -0.128 ± 0.013 for the first, 0.299 ± 0.02 for the second.

Going from CGTACCGA to CCTTTCTC, the “PBM E-score of 8-mer” value rises from -0.172 ± 0.048 to -0.0361 ± 0.0053.

Going from CTGCATCC to ACAAACAA, the “PBM E-score of 8-mer” value rises from -0.296 ± 0.01 to -0.0529 ± 0.023.

Compared with ATATATTC, CCTAATTA is higher in “PBM E-score of 8-mer” value: -0.227 ± 0.1 for the first, -0.0641 ± 0.04 for the second.

CCCCCATC and AATCCGGC are within error of each other in “PBM E-score of 8-mer” value: -0.0234 ± 0.039 for the first, -0.0482 ± 0.032 for the second.

GTCCTTAA and TAGGTCAA are within error of each other in “PBM E-score of 8-mer” value: -0.25 ± 0.075 for the first, -0.24 ± 0.053 for the second.

CGTAATAG and ATAGTCTA are within error of each other in “PBM E-score of 8-mer” value: -0.149 ± 0.052 for the first, -0.132 ± 0.032 for the second.

First: TCCGTCCA
Second: CAAGTTTA
The “PBM E-score of 8-mer” value of the first is lower: -0.0963 ± 0.047 for the first, 0.161 ± 0.084 for the second.

First: GCGGTTAC
Second: GATCGAAC
The “PBM E-score of 8-mer” value of the first is higher: -0.0207 ± 0.021 for the first, -0.0822 ± 0.031 for the second.

First: CCCAGTGC
Second: GTTTTGCA
The “PBM E-score of 8-mer” value of the first is lower: -0.102 ± 0.043 for the first, 0.06 ± 0.033 for the second.

Compared with AGTTTCTG, GAGCTTCA is lower in “PBM E-score of 8-mer” value: 0.0153 ± 0.0032 for the first, -0.137 ± 0.0098 for the second.

Going from AGCTCTCA to CGAACGAA, the “PBM E-score of 8-mer” value falls from 0.0682 ± 0.023 to -0.0608 ± 0.029.

Compared with CTAAGCAA, GTTTAGTA is lower in “PBM E-score of 8-mer” value: -0.00553 ± 0.0064 for the first, -0.296 ± 0.038 for the second.

Compared with AAGCTCTG, ACGAATTG is higher in “PBM E-score of 8-mer” value: -0.103 ± 0.041 for the first, 0.0628 ± 0.039 for the second.

TAACAGCA and GCTGAGGA are within error of each other in “PBM E-score of 8-mer” value: 0.0236 ± 0.041 for the first, -0.00513 ± 0.026 for the second.

ACGGTTAG and AATCCGAG are within error of each other in “PBM E-score of 8-mer” value: 0.0117 ± 0.068 for the first, -0.00826 ± 0.0078 for the second.

Compared with AGGAATGC, AACAGCAC is higher in “PBM E-score of 8-mer” value: -0.169 ± 0.021 for the first, 0.2 ± 0.036 for the second.

CTTTGACC and GGCCTTGA are within error of each other in “PBM E-score of 8-mer” value: -0.263 ± 0.033 for the first, -0.238 ± 0.0033 for the second.

First: TCTTTCAA
Second: GCATCGGA
The “PBM E-score of 8-mer” value of the first is lower: -0.299 ± 0.037 for the first, -0.132 ± 0.0095 for the second.

CGGATTCA and ACGTACCA are within error of each other in “PBM E-score of 8-mer” value: -0.111 ± 0.0065 for the first, -0.142 ± 0.042 for the second.

First: AATCTCTC
Second: ACCACTCG
The “PBM E-score of 8-mer” value of the first is lower: -0.0609 ± 0.011 for the first, 0.12 ± 0.008 for the second.

Compared with CCCTCCTC, GTAGTGGA is lower in “PBM E-score of 8-mer” value: -0.0552 ± 0.0098 for the first, -0.185 ± 0.077 for the second.

First: AGTCTTTG
Second: AAATAAGT
The “PBM E-score of 8-mer” value of the first is lower: -0.141 ± 0.0091 for the first, 0.0179 ± 0.086 for the second.

ATAGCAGC and ACCCTAGC are within error of each other in “PBM E-score of 8-mer” value: 0.074 ± 0.021 for the first, -0.0107 ± 0.082 for the second.

Going from ATACATAC to ATGCACGA, the “PBM E-score of 8-mer” value falls from -0.0984 ± 0.025 to -0.134 ± 0.0081.

Going from CACAAACC to AACTACAT, the “PBM E-score of 8-mer” value rises from -0.224 ± 0.032 to 0.049 ± 0.06.

ACTTCTAT and CCTCCAGG are within error of each other in “PBM E-score of 8-mer” value: -0.0949 ± 0.087 for the first, -0.169 ± 0.059 for the second.

Going from CTCAGGAC to CATCTCTA, the “PBM E-score of 8-mer” value rises from -0.2433 ± 0.0019 to -0.175 ± 0.028.

AAGAACCG and ACATTCCT are within error of each other in “PBM E-score of 8-mer” value: -0.0764 ± 0.1 for the first, -0.213 ± 0.043 for the second.

Going from CCCCCAAG to AGCCGAAC, the “PBM E-score of 8-mer” value falls from 0.0726 ± 0.017 to -0.0977 ± 0.032.

Going from CCAGCACG to GACCGCAA, the “PBM E-score of 8-mer” value falls from 0.145 ± 0.06 to -0.161 ± 0.0043.
